# Reference: publication PMC4336329 (PLoS ONE, 2015)
# The campaign covered roughly 310,000 compounds. About 2,200 (0.71%) showed an effect of 50% or more. The effect is printed as a negative number. The list shows a part of the results.
# Biological target: human ether-à-go-go-related gene (hERG) potassium channel (human, UniProt Q12809)
# Test: primary screen, population patch clamp on CHO cells stably expressing hERG
# human ether-à-go-go-related gene (hERG) potassium channel, sequence (Q12809 whole entry, looked up): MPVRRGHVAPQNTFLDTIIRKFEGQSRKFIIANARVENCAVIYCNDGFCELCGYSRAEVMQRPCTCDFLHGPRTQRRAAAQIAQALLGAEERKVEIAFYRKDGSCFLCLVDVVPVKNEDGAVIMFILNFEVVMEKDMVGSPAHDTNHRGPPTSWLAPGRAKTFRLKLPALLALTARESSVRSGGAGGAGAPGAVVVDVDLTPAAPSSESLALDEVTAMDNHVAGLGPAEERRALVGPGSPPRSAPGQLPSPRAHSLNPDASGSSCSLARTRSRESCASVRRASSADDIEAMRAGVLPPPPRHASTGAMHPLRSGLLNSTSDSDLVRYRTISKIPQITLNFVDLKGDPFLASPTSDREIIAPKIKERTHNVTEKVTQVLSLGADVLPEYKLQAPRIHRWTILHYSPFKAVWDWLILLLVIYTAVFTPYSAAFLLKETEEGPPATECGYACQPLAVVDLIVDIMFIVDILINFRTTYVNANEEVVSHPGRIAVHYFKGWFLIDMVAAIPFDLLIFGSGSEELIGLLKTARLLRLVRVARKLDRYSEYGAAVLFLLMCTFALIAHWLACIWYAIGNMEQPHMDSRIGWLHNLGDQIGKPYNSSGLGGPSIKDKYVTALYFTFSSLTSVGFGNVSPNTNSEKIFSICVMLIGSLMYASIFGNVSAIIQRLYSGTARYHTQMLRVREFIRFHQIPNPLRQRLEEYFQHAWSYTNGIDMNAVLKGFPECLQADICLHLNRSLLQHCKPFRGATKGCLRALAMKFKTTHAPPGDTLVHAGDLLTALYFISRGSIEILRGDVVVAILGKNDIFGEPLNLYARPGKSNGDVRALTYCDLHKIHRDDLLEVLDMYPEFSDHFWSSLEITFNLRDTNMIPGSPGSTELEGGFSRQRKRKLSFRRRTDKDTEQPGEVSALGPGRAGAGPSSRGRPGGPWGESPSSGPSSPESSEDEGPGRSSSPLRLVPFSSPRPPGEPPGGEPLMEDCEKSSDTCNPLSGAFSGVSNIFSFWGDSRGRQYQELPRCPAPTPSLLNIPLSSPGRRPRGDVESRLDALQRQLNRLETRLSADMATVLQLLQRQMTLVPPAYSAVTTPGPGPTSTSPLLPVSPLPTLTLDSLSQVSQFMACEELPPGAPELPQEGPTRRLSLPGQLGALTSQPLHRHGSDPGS
row,Compound,"hERG current change (%, negative = inhibition) at 1uM"
1,CCSc1nsc(NC(=O)Nc2ccccc2OC)n1,9.7%
2,CCn1cc(/C=N\NC(=O)COc2cccc(C)c2C)c(C)n1,0.219%
3,COc1ccc(-n2c(Cc3ccccc3)nnc2SCC(=O)N2CCCc3ccccc32)cc1,-3.61%
4,Cc1cccc(OCCCC(=O)Nc2ccc(N3CCCCC3)cc2)c1C,1.12%
5,O=C(CCn1nnc2ccccc2c1=O)N[C@@H](Cc1ccccc1)C(=O)O,8.66%
6,Cc1cccc(NC(=O)CN2C(=O)N/C(=C/c3cc(C)n(-c4cccnc4)c3C)C2=O)c1,12.1%
7,O=C(N1CCOCC1)N1CCN(S(=O)(=O)N2CCOCC2)CC1,11.1%
8,O=C(c1ccncc1)N(Cc1cc2ccccc2[nH]c1=O)C1CCCCC1,6.99%
9,CC(C)Nc1c(N)c(=O)oc2ccccc12,8.29%
10,C[n+]1ccc(/C=N/Nc2nc(Cl)c(C#N)c(Cl)c2Cl)cc1.[Cl-],11.2%
11,COc1ccc(OC)c(-n2c(-c3ccc(S(C)(=O)=O)cc3)cc(C=O)c2C)c1,8.73%
12,Cc1nonc1CC(=O)N1CCCC(C(=O)c2ccc(Cl)cc2)C1 (stereo not shown),8.62%
13,Cc1ccc(NC2(C#N)C(=O)Nc3ccccc32)cc1 (stereo not shown),10.8%
14,CSc1cccc(NC(=O)CSc2ccc(C)cc2)c1,7.76%
15,O=C(/C=C/Nc1ccc(F)c(Cl)c1)c1ccccc1,12.9%
16,CCC(=O)c1cn(CC(=O)Nc2cccc(C)c2)c2ccccc12,14%
17,O=C(Nc1ccc(F)c(F)c1)C1CCCN1S(=O)(=O)c1ccc(F)cc1 (stereo not shown),12.9%
18,O=C(c1cc2ccccc2oc1=O)N1CCN(Cc2ccc3c(c2)OCO3)CC1,-20.8%
19,CCOC(=O)C1CCN(Cc2cc(=O)oc3cc(C)ccc23)CC1,-10.4%
20,CCO.O=c1[nH]c(NNC(=S)NC2CCCCC2)nc2c1C1(CCCC1)Cc1ccccc1-2,12%
21,CC(OC(=O)CC1CC2CCC1C2)C(=O)Nc1ccc(N2CCOCC2)cc1 (stereo not shown),1.87%
22,COc1cc(NC(=O)c2cccs2)c(C(=O)OCC(=O)NCc2ccco2)cc1OC,4.43%

row,Compound,"hERG current change (%, negative = inhibition) at 1uM"
1,OCCCNC(c1ccccc1)c1ccc(O)cc1 (stereo not shown),4.13%
2,O=c1c2nnn(Cc3ccc(Cl)cc3)c2ncn1Cc1ccc(F)cc1,11.9%
3,O=S(=O)(NCc1cc(-c2ccccc2Cl)no1)c1ccc(Cl)cc1,6.83%
4,CSc1ccc(C(=O)C(C)(C)N2CCOCC2)cc1,0.0097%
5,COc1ccc(N(CC(=O)NCC(C)C)S(=O)(=O)c2ccccc2)cc1,9.97%
6,Clc1ccc2oc3c(Cl)ncnc3c2c1,7.83%
7,CC(C)c1nnc(NC(=O)CCC(=O)N2CCN(c3ccc(Cl)cc3)CC2)s1,2.97%
8,COc1cccc(CN(C)CC(=O)Nc2ccccc2C(C)C)c1.O=C(O)C(=O)O,9.6%
9,COc1ccc(-c2noc(C3CCCN(C(=O)c4ccccc4OC)C3)n2)cc1 (stereo not shown),14.5%
10,CCc1ccc(NC(=O)C2CCN(C(=O)N3CCOc4ccccc43)CC2)cc1,1.93%
11,Cc1ccccc1NC(=O)CC(=O)c1ccccc1,15.2%
12,Cc1nc2c(Cl)cccc2c2c1CC(CBr)O2 (stereo not shown),8.11%
13,CCOC(=O)c1cnc2c(C)cccc2c1Nc1cccc(C(=O)O)c1.Cl,11.3%
14,COc1ccccc1/C=C/C(=O)NCC(=O)N/N=C(/C)c1ccco1,11.6%
15,O=C(CNS(=O)(=O)c1cccs1)N1CCCCC1,14.2%
16,COc1ccccc1NC(=O)CSc1nc(N)c(-c2ccccc2)c(=O)[nH]1,17.4%
17,Cn1c(SCC(N)=O)nnc1-c1ccc(S(=O)(=O)N2CCCC2)cc1,17.2%
18,O=C(NCc1cccs1)C(Cc1ccccc1)NS(=O)(=O)c1cccs1 (stereo not shown),-3.51%
19,COc1ccc(CN2CCCC(CO)(Cc3cccc(Cl)c3)C2)cc1OC (stereo not shown),-29.2%
20,O=C(CSCc1ccc(Cl)cc1)Nc1ccccc1O,18.2%
21,Cc1c(C(N)=O)c(N)c(C(=O)c2ccccc2)n1-c1ccccc1,9.73%
22,O=C(CCNC(=O)C1CCN(S(=O)(=O)c2ccc(F)cc2)CC1)NCc1ccccc1Cl,15.1%

row,Compound,"hERG current change (%, negative = inhibition) at 1uM"
1,CCN(CC)C(=O)c1ccc(NC(=S)NC(=O)CCc2ccccc2)cc1,8.92%
2,Cc1nn2c(N3CCOCC3)cc(C(C)(C)C)nc2c1-c1ccccc1,12%
3,O=C1CCC(C(=O)N2CCC(O)(c3ccccc3)CC2)CN1CCc1ccccc1 (stereo not shown),6%
4,Cc1ccc(CNC(=O)CSc2nc3ccsc3c(=O)n2Cc2ccc(C(=O)O)cc2)cc1,12.8%
5,COCCN(CCOC)C(=O)c1sc2nc(-c3ccccc3)cn2c1C,-1.16%
6,O=C(NC1CCCCCC1)C1CCC(=O)N(Cc2ccccc2F)C1 (stereo not shown),16.8%
7,Cn1c(=O)[nH]c(=O)c2c1nc(NCc1ccccc1)n2CC(O)c1ccccc1 (stereo not shown),4.24%
8,CC1CCc2cc(F)ccc2N1C(=O)c1cccs1 (stereo not shown),9.33%
9,O=C1N/C(=C\c2nc3ccccc3s2)c2ccccc21,9.48%
10,COC(=O)[C@H]1[C@@H](C)N(Cc2ccccc2)C(=O)N[C@H]1c1cccc(C(F)(F)F)c1,7.06%
11,CCN(CC)CCCN=C(C)C1=C(O)c2ccccc2C1=O,-1.93%
12,Cc1ccc(C(=O)/C=C/c2ccc(F)cc2)o1,7.74%
13,C=CCn1c(Cc2cccs2)nnc1SCC(=O)Nc1cccc(OC)c1,7.14%
14,CCn1c2ccccc2c2cc(NC(=O)COC(=O)c3ccccc3O)ccc21,15%
15,CCOC(=O)c1[nH]cnc1C(=O)NC1CCN(C(=O)OC(C)(C)C)CC1,16.6%
16,O=C(COC(=O)c1ccccc1)Nc1ccc(Cl)cc1C(=O)c1ccccc1,10.7%
17,CCC(=O)N1CCc2cc(S(=O)(=O)NCCC(=O)N3CC=C(c4ccccc4)CC3)ccc21,3.12%
18,O=c1c2ccccc2ncn1CCCCOc1ccccc1F,15.2%
19,O=C(c1ccc2c(c1)OCO2)N1CCN(c2ccccn2)CC1,10.1%
20,O=C(NC1CC1)c1sc2ccccc2c1Cl,22.4%
21,CCOc1cc(C)c(Cl)cc1S(=O)(=O)NCc1ccco1,8.22%
22,CCCCCCCNC(=O)C1(CC2CC(c3cccc(Br)c3)=NO2)CCN(C(=O)c2ccccc2)CC1 (stereo not shown),0.135%

row,Compound,"hERG current change (%, negative = inhibition) at 1uM"
1,COCC(=O)n1nc(-c2ccccc2)nc1NCc1ccc(N(C)C)cc1,2.05%
2,COc1ccccc1N1CCN(CCCCOc2c(OC)cccc2OC)CC1.O=C(O)C(=O)O,-38.6%
3,CCC1Oc2ccc(C)cc2N(CC(=O)NCc2ccccc2OC)C1=O (stereo not shown),2.27%
4,COCCn1cnc2c1c(=O)n(CC#N)c(=O)n2Cc1ccccc1,7.24%
5,Cc1c(O)nc(SCC(=O)Nc2cccc(C(F)(F)F)c2)n(-c2ccccc2)c1=O,15.4%
6,O=C(c1cc(COc2ccc3c(c2)CCCC3)on1)N1CCCC1,11.6%
7,CCC1=C(OC(=O)N(CC)CC)N2C(=O)OC(=NCCOC)[C@]2(Cc2ccccc2)[C@H]2C1=CC[C@H]1C(=O)NC(=O)[C@H]12,13.4%
8,O=C(Cc1ccccc1)NCCSCc1ccccc1,-1.5%
9,COc1ccc(OC)c(NC(=O)CSc2nc3[nH]c(=O)cc(O)c3s2)c1,14.7%
10,CCOC(=O)N/N=C/c1ccc(N(CC)CC)cc1O,15.4%
11,Cc1ccc(S(=O)(=O)/N=C(\c2ccccc2)N(C)S(=O)(=O)c2ccc(C)cc2)cc1,15.6%
12,COc1cc(OC)c(CN2CCCN(C)CC2)cc1Br,15.1%
13,O=C(COc1ccccc1)Nc1nnc(-c2ccc(Cl)cc2)o1,8.01%
14,CCCCN(C)CCC(=O)Nc1ccc(OC)cc1OC,15.1%
15,Cc1ccc(C(=O)NC2CCCc3ccccc32)cc1[N+](=O)[O-] (stereo not shown),9.53%
16,O=C(Nc1ccc(OC(F)(F)C(F)F)c(NC(=O)c2ccc(F)cc2)c1)c1ccc(F)cc1,15.3%
17,CCOc1ccccc1NC(=O)CN1C(=O)C(=O)N(Cc2ccco2)C1=O,4.49%
18,CCCN(C(=O)c1nc2nc(C)cc(C)n2n1)c1c(N)n(Cc2ccccc2)c(=O)[nH]c1=O,15.7%
19,O=C(c1ccccc1)N1CCC(O)(c2cccnc2)CC1,18%
20,O=C(C1CCN(S(=O)(=O)c2cccs2)CC1)N1CCN(c2ccccc2O)CC1,3.49%
21,COc1ccc(NC(=O)/C=C/c2ccco2)cn1,11.1%
22,O=C(NCc1ccccc1)/C(=C\c1ccccc1)NC(=O)c1ccco1,11.9%
